Entries after “also recorded” stand apart in the source; their conditions may differ.

The text below walks through data of patent US7271245B2, “Methods and compositions for inhibition of metastasis” (The Scripps Research Institute, priority 2004, dated 2007).

This test deals with T1, activated integrin αvβ3 (Homo sapiens, UniProt P05106+P06756).
T1 construct: endogenous in cells; host or cells: MDA-MB 435 variants (Parent Combo, Bone, Lung) and patient blood-derived BMS cells; also β3-negative cells re-transfected with β3WT or β3D723R cDNA
Put plainly: Flow cytometry, scFv binding to MDA-MB 435 variants and patient metastatic breast cancer cells. How it is done:
FIGS. 1A, 1B, 1C. Patient derived scFvs Bc-12 and Bc-15 recognize tumor cell integrin αvβ3 in a cation and activation dependent manner. Flow cytometric analyses in TBS with or without 1 mM Ca^2+, 1 mM Mg^2+, or 0.2 mM Mn^2+ as indicated. Binding of soluble scFv detected after incubation with anti-Flag M2 murine mAb followed by FITC-anti mouse F(ab′)2. (A) scFv binding to human melanoma cells (M21: αvβ3 plus other αv integrins) (M21-LIIb: αIIbβ3, no αv integrins) or lung adenocarcinoma cells (UCLA-P3: αv integrins, no β3 integrin). (B) scFv binding to M21 melanoma cells. (C) scFv binding to variants of MDA-MB 435 human breast cancer cells that lack (β^3−) or express αvβ3 either in a non-activated (β3WT, ParentCo) or activated form (β3D723R, Bone, Lung, and BMS metastatic cancer cells isolated from breast cancer patient blood).
FIGS. 2A, 2B, 2C, 2D. Translation of scFv DNA sequence analyses. (A) Consensus amino acid sequence (SEQ ID NO: 9) of Bc-12 (SEQ ID NO: 7) and Bc-15 (SEQ ID NO: 8) (specific for activated αvβ3) compared to Bc-20 (specific for αv) (SEQ ID NO: 10). (B) scFv binding to BMS human breast cancer cells by flow cytometry, indicating loss of Bc-12 and Bc-15 binding when CDR-H3 RGD is mutated to RGE (Mut-12 and Mut-15). […] (C) cDNA sequences for scFv Bc-12 (SEQ ID NO: 1) and scFv Bc-15 (SEQ ID NO: 3). The cDNA encoding scFv Bc-12 has an ATCC accession number PTA-6303, date of deposit: Nov. 12, 2004. The cDNA encoding scFv Bc-15 has an ATCC accession number PTA-6304, date of deposit: Nov. 12, 2004. (D) cDNA sequences for scFv Mut-12 (SEQ ID NO: 5) and scFv Mut-15 (SEQ ID NO: 6). scFv Mut-12 is the RGE containing mutant version of scFv Bc-12. scFv Mut-15 is the RGE containing mutant version of scFv Bc-15.
Flow cytometry. scFv binding to human tumor cells was analyzed by flow cytometry, initially with cloned scFv phage and then with purified scFv protein. Per sample, 2×10^5 tumor cells were blocked with goat serum and incubated either with scFv phage (2-5×10^10) (1 h at RT) followed by mouse anti-M13 mAb (Serotec) (30 min on ice) and goat FITC-anti mouse (Pierce) (30 min on ice), or with purified scFv (1.25 to 40 μg/ml, routinely 10 to 15 μg/ml) (45 min on ice), followed by mouse anti-FLAG mAb M2 (Sigma) (30 min on ice) and goat FITC-anti mouse. Binding/washing buffer was TBS with or without divalent cations (1 mM Ca^2+, 1 mM Mg^2+, 0.2 mM Mn^2+). Alternatively, tumor cells were washed in 10 ml of plasma (prepared freshly from human blood anticoagulated with 50 nM D-Phe-D-Pro-D-arginyl chloromethyl ketone, PPACK, Felding-Habermann et al., J. Biol. Chem. 271: 5892-5900, 1996), resuspended in plasma and then incubated sequentially, without washing, with purified scFv (45 min on ice), followed by anti-FLAG M2 (30 min on ice) and FITC-anti mouse (30 min on ice). All samples were counter stained with propidium iodide (PI) and analyzed on a Becton-Dickinson FACScan, with live gate set to exclude PI positive cells.
To test this further, the effects of cation combinations on Bc-12 and Bc-15 binding were examined. […] Smith, Methods Cell Biol. 69: 247-259, 2002; Hughes et al., J. Biol. Chem. 271: 6571-6574, 1996. To confirm that scFv Bc-12 and Bc-15 selectively recognize αvβ3 in its activated form, binding of these antibodies to in vitro generated and in vivo selected variants of the MDA-MB 435 breast cancer cell model was tested. […] In contrast, Bc-12 and Bc-15 were able to bind an MDA-MB 435 variant expressing constitutively activated mutant αvβ3D723R, without exogenous stimulation with Mn^2+. […] Importantly, scFvs Bc-12 and Bc-15 recognized in vivo selected MDA-MB 435 variants from bone and lung metastases, as well as metastatic cells isolated from breast cancer patient blood samples (FIG. 1C). These cells express αvβ3 in a constitutively activated form. Felding-Habermann et al., Proc. Natl. Acad. Sci. U.S.A 98: 1853-1858, 2001; Rolli et al., Proc. Natl. Acad. Sci. U.S.A 100: 9482-9487, 2003.
On the technique in general: In flow cytometry, cells or beads pass a laser one at a time.

T1 sequence (P06756 31-889 limits assumed): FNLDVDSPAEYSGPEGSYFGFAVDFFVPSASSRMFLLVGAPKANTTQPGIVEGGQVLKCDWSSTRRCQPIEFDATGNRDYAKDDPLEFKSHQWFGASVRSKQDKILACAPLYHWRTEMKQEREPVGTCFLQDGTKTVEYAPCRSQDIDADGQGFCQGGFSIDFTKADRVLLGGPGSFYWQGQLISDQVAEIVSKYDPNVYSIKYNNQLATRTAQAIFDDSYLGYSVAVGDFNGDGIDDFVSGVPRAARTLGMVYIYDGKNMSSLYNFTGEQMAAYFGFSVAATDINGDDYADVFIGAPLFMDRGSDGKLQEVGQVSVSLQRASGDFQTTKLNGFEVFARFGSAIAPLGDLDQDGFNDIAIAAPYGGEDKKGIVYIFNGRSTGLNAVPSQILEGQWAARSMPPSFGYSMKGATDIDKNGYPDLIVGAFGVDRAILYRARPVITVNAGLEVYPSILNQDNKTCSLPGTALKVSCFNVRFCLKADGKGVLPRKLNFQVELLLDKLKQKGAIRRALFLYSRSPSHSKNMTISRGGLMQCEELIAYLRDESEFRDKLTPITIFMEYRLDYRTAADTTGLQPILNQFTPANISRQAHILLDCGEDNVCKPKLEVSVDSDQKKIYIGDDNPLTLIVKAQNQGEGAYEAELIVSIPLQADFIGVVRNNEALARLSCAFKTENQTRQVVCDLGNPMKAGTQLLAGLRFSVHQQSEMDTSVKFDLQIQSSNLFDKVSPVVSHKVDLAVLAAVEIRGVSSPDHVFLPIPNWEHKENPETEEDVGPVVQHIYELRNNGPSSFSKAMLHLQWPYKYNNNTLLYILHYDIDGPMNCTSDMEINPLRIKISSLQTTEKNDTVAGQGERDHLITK
T1 sequence (P06756 891-1048 limits assumed): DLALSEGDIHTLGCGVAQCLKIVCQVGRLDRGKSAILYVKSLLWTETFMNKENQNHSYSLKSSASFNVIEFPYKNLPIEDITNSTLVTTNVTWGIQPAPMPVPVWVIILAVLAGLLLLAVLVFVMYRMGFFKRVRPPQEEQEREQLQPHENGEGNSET
T1 sequence (P05106 27-788): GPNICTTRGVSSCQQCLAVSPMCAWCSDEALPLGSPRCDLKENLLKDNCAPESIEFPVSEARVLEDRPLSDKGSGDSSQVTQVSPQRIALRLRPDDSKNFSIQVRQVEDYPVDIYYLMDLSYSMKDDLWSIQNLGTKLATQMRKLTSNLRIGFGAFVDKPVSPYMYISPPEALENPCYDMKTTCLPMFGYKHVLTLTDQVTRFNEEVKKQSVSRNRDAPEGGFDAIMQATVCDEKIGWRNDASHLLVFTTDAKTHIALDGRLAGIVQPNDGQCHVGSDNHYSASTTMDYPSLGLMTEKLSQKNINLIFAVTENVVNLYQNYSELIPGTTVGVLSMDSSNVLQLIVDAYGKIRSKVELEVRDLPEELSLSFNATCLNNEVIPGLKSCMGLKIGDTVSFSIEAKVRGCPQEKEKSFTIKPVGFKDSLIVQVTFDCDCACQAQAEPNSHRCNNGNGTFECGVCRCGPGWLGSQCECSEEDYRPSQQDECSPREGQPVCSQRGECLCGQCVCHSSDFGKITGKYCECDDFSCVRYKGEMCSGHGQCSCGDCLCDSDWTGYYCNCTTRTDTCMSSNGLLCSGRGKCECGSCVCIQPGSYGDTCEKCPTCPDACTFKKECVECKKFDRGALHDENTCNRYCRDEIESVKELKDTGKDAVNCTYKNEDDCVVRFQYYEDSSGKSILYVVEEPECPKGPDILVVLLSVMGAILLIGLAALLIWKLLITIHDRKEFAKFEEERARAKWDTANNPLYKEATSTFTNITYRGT

B1: Bc-15: patient derived human scFv antibody against activated αvβ3 with RGD motif in CDR-H3; cDNA ATCC PTA-6304 (protein)
scFv: MAQVQLVQSGAEVKEPGSSVKVSCKASGGTFSSYAIYWVRQAPGQGLEWMGWINPDSGDTNSAQQFQGRVTMTRDTSISTAYMELSRLRSDDTAMYYCARPPRGDGPDYWGQGTLVTVSSGGGGGS[letters of about 100 residues not shown]RGLGGLVDYKDDDDK
In the case of B1, where the note is “constitutively activated αvβ3”, the “recognition of in vivo selected MDA-MB 435 variants from bone and lung metastases” value is reported as “recognized”; the “recognition of metastatic cells isolated from breast cancer patient blood samples” value is reported as “recognized”. Also, under “non-activated αvβ3”, the “binding to MDA-MB 435 Parent Combo cells” value is reported as “same Mn^2+ dependence”. Further, the “binding to β3 wild type expressing MDA-MB 435 cells” value (β3WT, non-activated αvβ3, without Mn^2+) is “failed to bind”. Moreover, the “binding to β3 wild type expressing MDA-MB 435 cells with Mn2+” value (β3WT, with Mn^2+) is “recognized when activated with Mn^2+”.

B2: Mut-15: RGE containing mutant version of scFv Bc-15 (protein)
chain: MAQVQLVQSGAEVKEPGSSVKVSCKASGGTFSSYAIYWVRQAPGQGLEWMGWINPDSGDTNSAQQFQGRVTMTRDTSISTAYMELSRLRSDDTAMYYCARPPRGEGPDYWGQGTLVTVSSGGGGGS[letters of about 100 residues not shown]RGLGGLVDYKDDDDK
B2: the “binding of RGE mutated scFv to human breast cancer cells” value (BMS cells, compared with parent RGD scFv) was “abolished; also recorded: equivalent to negative control”.
